This note sets out measurements from the supplement of paper PMC11417369.

Some of the results follow.

The test has as its system PfAP2-HC AP2 domain (GST-tagged). The experiment in a line: gcPBM binding intensity (ln(normalized median fluorescence intensity)); higher = stronger DNA binding. Put shortly: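 Binding intensity is the highest Masliner-normalised natural-log median intensity over replicate spots in either probe orientation. To obtain it, GST-tagged P. falciparum DNA-binding domains made in E. coli were incubated for 1 h on an Agilent 4 × 180k array of primer-extended double-stranded 36-bp intergenic genomic probes plus negative controls. Detection used Alexa488 anti-GST antibody with scanning at 488 nm.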
Regarding “AATAAATGGAAAAGGTGTACACAAAAAAAAGGGAAA [XGTACX_site4956]”, the “gcPBM binding intensity (ln)” value stood at 10. The figure for “AAAAAAAAAAAAAAAACATGCAGTTAGTGGTTTTTT [TGCATGCA_site243]” is 9.66; for “TATTATATATAATATTGTACATTAAAATATTAAAGA [XGTACX_site3698]” it is 9.48. Turning to “GGAACGTTCATATTTCCACACACAAAAAATAAATAT [CACACA_site9101]”, the “gcPBM binding intensity (ln)” value stood at 10.2.

Turning to “TTTATTTTAAAATATAGTACGCAAATAAAAATAAAT [XGTACX_site7783]”, the “gcPBM binding intensity (ln)” value came out at 9.63. The figure for “ATATGTATTAAGTGTACACATATAATGGGTTTTCTT [CACACA_site5328]” is 9.86.

On to “GAAAAAAAAATACATACACACAATATATTTATTTAT [CACACA_site3124]”, for which the “gcPBM binding intensity (ln)” value worked out at 9.89.

As for “TAATTATATAAATACACACACATACACCCAAATAAA [CACACA_site5819]”, the “gcPBM binding intensity (ln)” value was 11.1. With “TATATACTATATATATGTACACAAAATTATTTTGAA [XGTACX_site8232]”, the “gcPBM binding intensity (ln)” value came to 9.51.

With “ATATGTAGTGTTATTTGTTCATTGTTTTAATTTTTA [CACACA_negctrl_site1394]”, the “gcPBM binding intensity (ln)” value was 10.

Turning to “ATGTATATTTTTATGTGTACGTAATAAAACATAATA [XGTACX_site7777]”, the “gcPBM binding intensity (ln)” value was 9.71. The figure for “TTATTTTTTTTTAGAGCACACATTTTTAATAAGGTA [CACACA_site2133]” is 9.48; for AATATGGGCATACATGTGCACTTTTTCCCGTGGTTT it is 9.68; for “TTAATTAAATATAGGGGTACATATTATATATGTTTT [XGTACX_site3677]” it is 9.66. The value for “ACGAAAAGATATATATGTACATATATTAAAAAAAAA [XGTACX_site1517]” was 9.72; that for “TTATATGCATATTTTTGTACACAACATTGTTGTATA [XGTACX_site8707]” was 9.74; that for “AAGAAATTTATTTATTGTACAATATATAATTTGTTT [XGTACX_site2478]” was 9.54. The value for AAATATTTCTGCAAGGTGCACTTTATAAATCTTTGA was 9.48; that for “TTCGTATGCATGAAATGTACATGATATTATTATAAA [XGTACX_site4542]” was 9.57; that for “TTTTGTTAACATATAGAAAAGAACAAAGTTAAAAAG [XGTACX_negctrl_site462]” was 9.69.

For “TATAAATTTGTTCAATGTACATGTAAAGATATAATC [XGTACX_site371]”, the “gcPBM binding intensity (ln)” value turned out to be 9.74. With “TTATTTTTTATAAAATGTACATATATTTTAAATATA [XGTACX_site4026]”, the “gcPBM binding intensity (ln)” value turned out to be 9.34. For the sequence “TGAAGCAAAAACAAAACACACATATAAATAAATAAA [CACACA_site3925]”, the “gcPBM binding intensity (ln)” value was 10.1. The value for “ACCAATCCAAAAGAATGTACCCATGTTTTAAAATAT [XGTACX_site2907]” was 9.66. The figure for “TTGAAGTGTACTATTTTATATATATATATACATTTT [CACACA_negctrl_site224]” is 10.1; for “TAGAAATATATTTATTGTACATTGTATATATTATAT [XGTACX_site7584]” it is 9.53; for “TTTTAATTTTTAAGACGTACTATCATTTGATAATAA [XGTACX_site3942]” it is 9.2. Turning to “TACGATGTTTTAAAATGTACATAAAAGTCACATAAG [XGTACX_site3297]”, the “gcPBM binding intensity (ln)” value was 9.58. As to TAATGTTCCTATATAGTGCAATTATGTTTTATTTCT, the “gcPBM binding intensity (ln)” value was 9.81. The figure for “TCTTTTTTTTTTACTAGTACTTAAAAAAAAAATATG [XGTACX_site4395]” is 9.45; for “ATTATGTGCCAATACACACACACATCTATATTTATA [CACACA_site6359]” it is 10.3; for “TATTTATAAATATACGCACACATTAATATATATATA [CACACA_site3969]” it is 9.79.

In the case of “AGTATGTAAATGTGCCATATATATATTAAATACATA [CACACA_negctrl_site14]”, the “gcPBM binding intensity (ln)” value was determined as 9.72.

Regarding “ATATTATTTATTTTTAAATTATATTGATTATTTTTT [CACACA_negctrl_site451]”, the “gcPBM binding intensity (ln)” value came out at 9.62. The value for “GTTGGTAGGCGGTACGGTACACGTAGTATTTTTCTT [XGTACX_site4213]” was 9.73; that for “TTTTTTTCATATATATGTACATAATTATATATGCAT [XGTACX_site3257]” was 9.77; that for “AAATAGTAAGAGATGGTGCGTTTCCTTTTTTTTTTT [GTGCAC_site9663]” was 10.2.

Consider “TTTAAAAATATTTCACGTACGCATTTTAAAAAGTAT [XGTACX_site8026]”, for which the “gcPBM binding intensity (ln)” value was determined as 9.54. The value for “TTAATTATATGGTAAACAAATAAATGTGAAAGGAAA [XGTACX_negctrl_site389]” was 9.67. The figure for “CGTGGGAGCAGACACACACACACACCCATATATATA [CACACA_site334]” is 10.7; for “TTATTATATAAATAAAAAAAAAAAAAAAAAAAAAAA [CACACA_negctrl_site1455]” it is 8.68.

On to “TATATACGCATGCGCACACACAAGTGGGAAATTTGG [CACACA_site1785]”, for which the “gcPBM binding intensity (ln)” value is 10.2. With “ACTGTGGGAATAACCACACACACACCCACATATATA [CACACA_site3542]”, the “gcPBM binding intensity (ln)” value came to 10.2. “ATATTTATATGAATCACACACAAAAAATATAGAGAT [CACACA_site7775]”: the “gcPBM binding intensity (ln)” value turned out to be 10.1. The figure for “AAATCACAAAAAAAAAAAAAAATATATATATATATA [CACACA_negctrl_site10]” is 9.29.
